From the supplement of paper PMC7826260
Some of the results follow. Each Rep nickase domain was tested in vitro on the same pool of single strands for 1 h at 37 °C with 3 µM enzyme; only the middle of the 90-letter strands is printed. Uncut reads are compared with the no-enzyme pool on a log2 scale; the lower, the more was cut; hits are not called. The scaling is to total reads; values above 0 arise when much of the pool is cut.

Assays:
Assay in all cases: uncleaved DNA left, log2 of reads against the no-enzyme library (log2 ratio); higher = less cleavage (more negative = more Rep cleavage of the k-mer); sequences stand for … in CTCGTCCG…ACCGGAGA
[1] = tested on: T1, Rep nickase domain of Muscovy duck circovirus
T1 sequence (residues 1-111, tag not shown): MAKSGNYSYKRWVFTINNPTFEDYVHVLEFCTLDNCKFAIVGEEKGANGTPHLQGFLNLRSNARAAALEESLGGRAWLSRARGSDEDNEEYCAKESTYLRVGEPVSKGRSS
Procedure: (§1)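 A pool of 90-nt single-stranded DNAs with seven random bases just before the constant AC of the nick site (name = the seven bases) was cut by 3 µM recombinant His6-SUMO-tagged Rep nickase domain (300 nM DNA, 50 mM HEPES pH 8.0, 50 mM NaCl, 1 mM MnCl2, 1 h, 37 °C, three replicates). Uncut DNA was amplified and sequenced.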

[2] = tested on: T2, Rep nickase domain of banana bunchy top virus
T2 sequence (residues 1-94, tag not shown): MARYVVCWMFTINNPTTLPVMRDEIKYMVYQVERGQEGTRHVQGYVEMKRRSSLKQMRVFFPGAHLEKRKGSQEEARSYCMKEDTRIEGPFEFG
Procedure: as §1

[3] = tested on: T3, Rep nickase domain of cabbage leaf curl virus
T3 sequence (residues 1-116, tag not shown): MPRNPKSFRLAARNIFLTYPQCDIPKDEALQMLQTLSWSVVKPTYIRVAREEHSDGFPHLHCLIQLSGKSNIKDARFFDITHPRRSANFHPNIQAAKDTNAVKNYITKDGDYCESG
Procedure: as §1

[4] = tested on: T4, Rep nickase domain of chickpea chlorotic dwarf virus
T4 sequence (residues 1-124, tag not shown): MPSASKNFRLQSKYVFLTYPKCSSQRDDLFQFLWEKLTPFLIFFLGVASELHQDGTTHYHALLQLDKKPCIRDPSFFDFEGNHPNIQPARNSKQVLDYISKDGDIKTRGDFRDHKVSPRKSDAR
Procedure: as §1

[5] = tested on: T5, Rep nickase domain of faba bean necrotic yellows virus
T5 sequence (residues 1-98, tag not shown): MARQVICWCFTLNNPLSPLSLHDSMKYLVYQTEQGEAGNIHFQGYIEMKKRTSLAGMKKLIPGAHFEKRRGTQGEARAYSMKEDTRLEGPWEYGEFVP
Procedure: as §1

[6] = tested on: T6, Rep nickase domain of maize striate mosaic virus
T6 sequence (residues 1-117, tag not shown): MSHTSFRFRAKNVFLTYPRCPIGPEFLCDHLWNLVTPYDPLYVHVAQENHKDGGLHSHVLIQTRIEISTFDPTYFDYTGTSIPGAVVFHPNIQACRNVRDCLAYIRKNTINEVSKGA
Procedure: as §1

[7] = tested on: T7, Rep nickase domain of porcine circovirus 2
T7 sequence (residues 2-116, tag not shown): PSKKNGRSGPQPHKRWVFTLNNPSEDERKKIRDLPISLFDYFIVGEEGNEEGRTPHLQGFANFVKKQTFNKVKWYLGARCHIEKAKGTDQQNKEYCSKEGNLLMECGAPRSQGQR
Procedure: as §1

[8] = tested on: T8, Rep nickase domain of tomato golden mosaic virus
T8 sequence (residues 1-124, tag not shown): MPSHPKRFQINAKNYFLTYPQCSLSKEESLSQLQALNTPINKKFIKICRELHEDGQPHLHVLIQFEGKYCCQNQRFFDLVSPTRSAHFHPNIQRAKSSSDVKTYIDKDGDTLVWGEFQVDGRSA
Procedure: as §1

[9] = tested on: T9, Rep nickase domain of tomato yellow leaf curl virus
T9 sequence (residues 1-136, tag not shown): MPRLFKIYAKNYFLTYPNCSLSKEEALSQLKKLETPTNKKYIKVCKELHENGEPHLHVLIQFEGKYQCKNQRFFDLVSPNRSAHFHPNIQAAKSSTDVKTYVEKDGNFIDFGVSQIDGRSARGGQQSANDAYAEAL
Procedure: as §1

[10] = tested on: T10, Rep nickase domain of wheat dwarf virus
T10 sequence (residues 1-137, tag not shown): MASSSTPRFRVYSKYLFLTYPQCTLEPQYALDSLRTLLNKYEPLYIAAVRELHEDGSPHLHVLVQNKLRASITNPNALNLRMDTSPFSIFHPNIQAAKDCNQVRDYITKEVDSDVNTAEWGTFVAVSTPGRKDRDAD
Procedure: as §1

Sequence	uncleaved DNA left (log2) [1]	uncleaved DNA left (log2) [2]	uncleaved DNA left (log2) [3]	uncleaved DNA left (log2) [4]	uncleaved DNA left (log2) [5]	uncleaved DNA left (log2) [6]	uncleaved DNA left (log2) [7]	uncleaved DNA left (log2) [8]	uncleaved DNA left (log2) [9]	uncleaved DNA left (log2) [10]
GGCCCTT	-0.0816	-0.0903	0.737	1.43	-0.0055	2.11	-0.105	-0.0756	0.0142	0.0241
CCTCCTT	-0.218	-0.207	-0.154	-2.39	-0.194	-0.332	-0.367	-0.193	-0.195	-0.232
ACAGATT	-0.0436	-0.188	-0.257	-2.42	0.0368	-0.695	-0.22	-0.0317	-0.0848	-0.183
CGCTTTA	-0.00496	-0.00636	-0.118	-0.906	-0.0266	-0.497	-0.317	0.159	0.0323	-0.0472
CAGTAAT	-2.2	-3.22	-0.588	-2.56	-3.2	0.22	-3.86	-0.0985	0.103	-0.0553
TCTGGTG	-0.0132	-0.0301	-0.58	-0.687	0.105	-0.903	0.16	-0.0653	0.00715	-0.155
TGATTAC	0.07	0.00585	0.192	-1.06	0.0116	0.401	-0.0188	0.0548	0.0245	0.00294
TGATCCG	0.0165	-0.0989	-0.873	-0.275	-0.0328	-1.08	0.0661	-0.098	-0.0864	-0.165
ACTGTCG	0.0441	0.0752	-0.64	0.527	0.0435	-0.393	0.228	0.0284	0.0672	-0.0205
GATGGAT	-0.0175	0.0301	0.171	1.47	-0.0886	1.84	0.0616	0.126	-0.147	-0.0524
CTACGGT	-0.028	0.0119	0.0579	-0.391	0.0279	0.828	-0.241	0.108	-0.176	-0.0931
ACCCCAT	-0.215	-0.106	-0.211	-0.681	-0.0702	-0.495	-0.279	-0.175	-0.0519	0.0161
CCGTACT	-2.81	-0.958	-1.91	-2.44	-2.49	-0.521	-3.06	-1.79	-0.276	-2.48
CAATCCA	-0.234	0.0716	-2.18	-2.46	0.0487	-1.24	-0.955	-0.604	0.0344	-0.905
TCCTGAA	-0.0425	0.0735	0.13	-0.156	-0.161	-0.247	-0.0921	-0.00443	-0.0185	0.0142
CTCACGG	-0.0111	-0.00976	0.459	1.52	-0.0387	1.8	0.0947	0.139	-0.0553	0.00449
GACATGA	0.0376	0.0801	0.594	1.48	-0.0404	1.51	0.205	-0.0192	0.00332	0.19
TCGAAAT	0.179	0.191	0.353	0.0746	0.0219	-0.0302	-0.2	0.267	0.247	0.272
CCAATCC	0.00301	0.0827	-0.0746	-0.101	0.00124	-0.39	0.063	-0.0771	-0.00474	-0.0717
GGATCGG	0.042	0.0236	0.567	1.57	-0.0568	2.05	0.0875	0.125	-0.161	0.11
CACGGGG	0.0661	0.0528	0.547	1.06	0.106	1.11	0.179	0.0424	0.0208	0.0252
GGGATTG	0.0422	-0.00905	0.72	1.85	-0.0544	2.09	0.229	0.0152	-0.0257	0.179
TCGGTAC	-0.0851	-0.0873	0.263	0.0897	-0.081	0.365	0.0159	-0.079	-0.106	-0.0278
AGCTGTA	0.00216	-0.0189	0.247	1.36	-0.112	1.5	-0.136	-0.14	-0.149	0.0619
GGCGGTT	0.0605	-0.018	0.262	0.603	-0.101	1.35	-0.156	-0.0913	0.00997	0.0316
CGGTGTA	-0.0126	0.0791	0.279	0.353	-0.118	0.998	-0.00775	0.0257	0.0259	-0.0045
AGCCTGC	-0.0718	-0.035	-0.108	0.433	-0.111	0.791	0.0134	-0.178	-0.0954	-0.0137
TTCTCCG	0.0646	0.00296	-0.719	-0.493	0.117	-1.07	0.143	-0.0125	-0.0909	-0.0305
GCAATGA	0.113	0.0393	-0.0714	0.341	0.0972	-0.31	0.112	0.0205	0.0418	-0.0826
GAATTTC	-0.429	-0.0817	-1.85	-1.86	0.00912	0.248	-1.09	-0.269	0.173	-0.347
